Test results reported in paper PMC4336329 (PLoS ONE, 2015).
Out of some 310,000 compounds screened, about 2,200 (0.71%) showed an effect of 50% or more. The effect is printed as a negative number. The list shows a part of the results.

The molecules below were run against human ether-à-go-go-related gene (hERG) potassium channel (human, UniProt Q12809) (assay: primary screen, population patch clamp on CHO cells stably expressing hERG).
human ether-à-go-go-related gene (hERG) potassium channel, sequence (Q12809 whole entry, looked up): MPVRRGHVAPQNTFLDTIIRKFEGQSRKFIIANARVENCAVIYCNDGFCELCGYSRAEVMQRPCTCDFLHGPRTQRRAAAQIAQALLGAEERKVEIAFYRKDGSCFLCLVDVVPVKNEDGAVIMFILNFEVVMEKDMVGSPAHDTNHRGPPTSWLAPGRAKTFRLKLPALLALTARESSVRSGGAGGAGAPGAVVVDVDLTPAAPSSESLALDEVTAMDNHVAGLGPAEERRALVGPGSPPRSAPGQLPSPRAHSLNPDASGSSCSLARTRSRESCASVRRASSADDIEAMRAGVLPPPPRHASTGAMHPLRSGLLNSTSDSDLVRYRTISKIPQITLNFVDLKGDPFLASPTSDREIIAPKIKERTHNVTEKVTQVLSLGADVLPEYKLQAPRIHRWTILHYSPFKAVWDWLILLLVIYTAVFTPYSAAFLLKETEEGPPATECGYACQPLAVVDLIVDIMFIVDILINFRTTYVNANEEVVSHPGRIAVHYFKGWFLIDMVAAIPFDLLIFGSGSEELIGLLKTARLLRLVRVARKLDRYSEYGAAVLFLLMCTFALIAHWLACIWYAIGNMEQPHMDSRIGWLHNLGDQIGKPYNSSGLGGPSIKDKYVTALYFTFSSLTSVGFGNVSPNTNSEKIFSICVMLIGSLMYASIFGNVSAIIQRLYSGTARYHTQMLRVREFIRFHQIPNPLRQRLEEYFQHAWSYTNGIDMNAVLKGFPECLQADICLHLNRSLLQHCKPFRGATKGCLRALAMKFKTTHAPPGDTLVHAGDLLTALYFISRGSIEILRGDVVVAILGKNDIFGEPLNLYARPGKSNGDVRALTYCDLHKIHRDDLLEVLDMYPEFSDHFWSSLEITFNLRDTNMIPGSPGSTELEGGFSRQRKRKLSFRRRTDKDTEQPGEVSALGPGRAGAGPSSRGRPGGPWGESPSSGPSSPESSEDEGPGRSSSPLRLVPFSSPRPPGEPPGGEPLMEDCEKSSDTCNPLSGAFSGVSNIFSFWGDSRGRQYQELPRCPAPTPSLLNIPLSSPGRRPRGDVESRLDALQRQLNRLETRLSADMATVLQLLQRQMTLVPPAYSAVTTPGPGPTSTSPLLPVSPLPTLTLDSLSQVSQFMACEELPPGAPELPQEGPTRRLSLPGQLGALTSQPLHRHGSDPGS

Row | SMILES | hERG current change (%, negative = inhibition) at 1uM
1 | Cc1onc(-c2ccccc2Cl)c1C(=O)NNC(=O)c1ccc(F)cc1 | 10.3%
2 | COc1ccc2c(c1)/C(=N/OC(=O)c1cccs1)CCC2 | 2.62%
3 | CN(CC(=O)Nc1c(Cl)cccc1Cl)C(=O)c1ccc(-n2cncn2)c([N+](=O)[O-])c1 | 16.3%
4 | O=C(OCC1CC(c2ccccc2)=NO1)c1ccco1 (stereo not shown) | 13.5%
5 | CCCCOP(=O)(CN1CCOCC1)OCCCC | 11.9%
6 | CC(=O)N1N=C(c2cccs2)CC1c1cccc([N+](=O)[O-])c1 (stereo not shown) | -8.37%
7 | COc1ccc(Cl)cc1NC(=O)N1CCN(S(C)(=O)=O)CC1 | 4.07%
8 | COc1ccccc1C(=O)COC(=O)C1CCN(S(=O)(=O)c2ccc(C)c(C)c2)CC1 | 14.4%
9 | CCS(=O)(=O)c1ccc(-c2csc(-c3ccccc3Cl)n2)c(Cl)c1Cl | 1.61%
10 | COc1cc(CCC(=O)Nc2ncc(C)s2)cc(OC)c1OC | 9.63%
11 | O=C1NC(=O)/C(=C\c2ccccc2OCc2ccc([N+](=O)[O-])cc2)N1 | 9.76%
12 | CCOc1ccc2nc(NC(=O)C(NS(=O)(=O)c3cccc4nsnc34)C(C)C)sc2c1 (stereo not shown) | 12.7%
13 | Cc1ccccc1OCC(=O)Nc1cccc(Cl)c1C | 14.2%
14 | Cc1cccnc1NC(=O)c1nn(C)c2c1CS(=O)(=O)c1ccccc1-2 | 13.1%
15 | O=C(OCC(=O)N1CCc2ccccc21)C1CCCN1S(=O)(=O)c1ccc(Cl)cc1 (stereo not shown) | 5.04%
16 | O=C(CNC(=S)N(Cc1ccccc1)Cc1ccccc1F)NCCc1ccc(Cl)cc1 | 3.76%
17 | C=CCNC(=S)N1CCOCC1 | 7.43%
18 | CCOc1ccc(NC2=NCC(=O)N2CCc2ccccc2)cc1.Cl | 14.9%
19 | CCSc1nc(N2CCOCC2)c2c(c1C#N)CC(C)(C)N(C)C2 | 9.53%
20 | COCCCNC(=O)Cn1nnc(-c2ccc(NC(=O)c3ccccc3F)cc2)n1 | 3.12%
21 | Cc1ccc2[nH]c(=O)c(CN(Cc3nnnn3Cc3ccccc3)C3CCCC3)cc2c1 | 11.9%
22 | COc1cccc(-n2c(SCC(=O)NC3CCCC3)nnc2-c2ccco2)c1 | -25.1%

Row | SMILES | hERG current change (%, negative = inhibition) at 1uM
23 | Cc1cc(C(=O)Nc2cc(C(C)(C)C)on2)c(C)o1 | 13.9%
24 | CC(C)n1c(/N=C/c2ccccc2O)nc2ccccc21 | 12.5%
25 | CC1CCc2nc(NC(=O)c3ccc(N4C(=O)CCC4=O)cc3)sc2C1 (stereo not shown) | 15.6%
26 | COc1cccc([C@@H]2CC=C(C(=O)O)[C@H](c3ccccc3F)N2S(=O)(=O)c2ccc(C)cc2)c1 | 7.94%
27 | O=C(Nc1nc2ccccc2[nH]1)C1CC(=O)N(c2ccc3c(c2)OCCO3)C1 (stereo not shown) | 2.97%
28 | CCCCN1C(=O)C(=O)N(CC(=O)N2CCN(c3ccccc3)CC2)C1=O | 5.7%
29 | Cc1ccccc1N(CC(=O)NCc1ccccc1)C(=O)CCC(=O)Nc1nccs1 | 12.5%
30 | CN1CCN(C(=O)Nc2ccccc2)CC1.O=C(O)C(=O)O | 12.3%
31 | Cc1cc(C(=O)NCCc2ccc(Cl)cc2)no1 | 5.45%
32 | CC(=O)OCC1OC(n2ccc(=O)[nH]c2=O)C(O)C1O (stereo not shown) | 8.56%
33 | CCCn1c(N)c(C(=O)CSc2nc3ccccc3s2)c(=O)[nH]c1=O | 6.76%
34 | COc1ccc(S(=O)(=O)N(CC(=O)N/N=C/c2cccs2)c2cc(C)cc(C)c2)cc1OC | -8.06%
35 | Cc1cc(C)c(NC(=O)COC(=O)c2nc3nccc(C)n3n2)c(Cl)c1 | 8.31%
36 | COC(=O)CNc1nc(C2CC2)nc2c1nnn2Cc1ccccc1Cl | -0.759%
37 | CCOc1ccc(CCNC(=O)c2cccc3c2C(=O)N(CCOC)C3)cc1OCC | 5.79%
38 | CCCn1cnc2cc(NCc3cccs3)ccc21 | 7.23%
39 | COC(=O)c1c(NC(=O)C(=O)N2CCCC2)sc2c1CC(C)(C)OC2 | 12.9%
40 | Cc1cc(C(=O)OC(C)C(=O)Nc2cccc(S(=O)(=O)N3CCOCC3)c2)c(C)o1 (stereo not shown) | -2.94%
41 | Cc1ccc(C2=N/C(=C\c3ccc(OS(=O)(=O)c4ccc(C)cc4)cc3)C(=O)O2)cc1 | 19.4%
42 | CC(=O)c1nn(-c2cccc(Br)c2)cc1C(=O)c1ccc(Cl)cc1 | 7.8%
43 | O=C(Nc1cccc(-c2nnc(-c3ccccc3)o2)c1)C1CC1 | -6.62%
44 | COc1cc(C)c(-c2cc(C(=O)O)c(C)o2)cc1C(C)C | 11.9%

Row | SMILES | hERG current change (%, negative = inhibition) at 1uM
45 | COc1ccc(-n2c(SCC#N)nnc2-c2cccnc2)cc1 | 0.939%
46 | CC(=O)Nc1cccc(N=NN2CCOCC2)c1 | 8.15%
47 | CCCOc1ccccc1N/C(=N/c1nc(C)cc(C)n1)NC(=O)COc1ccc(OC)cc1 | 5.32%
48 | Cc1ccc(C)c(NC(=O)CSc2nnc(CNC(=O)c3ccco3)n2C)c1 | 12.4%
49 | Cc1ccc(NC(=O)c2cc(N3C(=O)C4CC=CCC4C3=O)ccc2N2CCOCC2)cc1Cl (stereo not shown) | 11%
50 | COc1ccc(NC(=O)CN(C)C(=O)c2ccc(=O)[nH]c2)cc1 | 9.78%
51 | Cc1cc(C)n(CCOC(=O)C2C(C=C(Cl)Cl)C2(C)C)n1 (stereo not shown) | -11.2%
52 | C=CCn1cccc(C(=O)Nc2ccc(OC)c(Cl)c2)c1=O | 7.17%
53 | COc1ccc(NC(=O)/C(C#N)=C\c2cc(OC)c(OCc3ccc(C(=O)O)cc3)cc2Br)cc1 | 8.27%
54 | CCOC(=O)C1(CC)NC(c2cccc(F)c2)C2C(=O)N(CC)C(=O)C21 (stereo not shown) | -2.3%
55 | COc1ccc(Br)cc1CN1CCC(N2CCCC2)CC1.O=C(O)C(=O)O | 8.69%
56 | O=C(Cc1ccc2c(c1)OCCO2)Nc1cccc(S(=O)(=O)N2CCOCC2)c1 | -1.42%
57 | CCc1cn(S(=O)(=O)c2ccccc2OC)nc1N | 5.84%
58 | COc1ccc(OC)c2sc(NC(=O)C3=COCCO3)nc12 | 10.4%
59 | Cc1cc(=O)nc2c3ccccc3n(C(C)C(=O)Nc3c(F)c(F)c(F)c(F)c3F)n12 (stereo not shown) | 10.7%
60 | O=C(O)c1cccc(CN2C(=O)c3ccccc3C2=O)c1 | 6.59%
61 | COC(=O)C1=CN(c2ccc(F)cc2)C=C(C(=O)OC)C1c1ccc(O)cc1 | -4.74%
62 | O=C(C1CC(=O)N(C2CCCCC2)C1)N1CCC2(CC1)OCCO2 (stereo not shown) | 14.1%
63 | Cc1cc(F)ccc1S(=O)(=O)N1CCCOC1CNC(=O)C(=O)NCc1ccncc1 (stereo not shown) | 8.37%
64 | O=C(COc1ccc(S(=O)(=O)N2CCOCC2)cc1)NCCc1ccccc1 | 0.144%
65 | O=S(=O)(Cc1ccccc1)Nc1ccc(Br)cn1 | 11.4%
66 | CCOC(=O)c1c(C)n(C)c2ccc(OCC(O)Cn3nc(C)c(Br)c3C)cc12 (stereo not shown) | 2.72%

Row | SMILES | hERG current change (%, negative = inhibition) at 1uM
67 | Cc1cc(C)n(C(=O)Cn2nc([N+](=O)[O-])cc2C)n1 | 8.35%
68 | CC(=O)c1cccc(NC(=O)c2ccc(N(Cc3ccccc3)S(C)(=O)=O)cc2)c1 | -1.9%
69 | CN(C)S(=O)(=O)c1cccc(-c2cn3cc(Cl)ccc3n2)c1 | 3.54%
70 | Oc1ccc(C(=S)N2CCCCCC2)cc1 | 9.52%
71 | Cc1cccc(-n2nc(C(=O)c3ccco3)cc(-c3nc4ccccc4[nH]3)c2=N)c1 | -46.5%
72 | Cc1cc(Nc2ccccc2C(=O)O)n(-c2ccc([N+](=O)[O-])cc2)n1 | 3.66%
73 | O=C(NC1CCCCC1)c1c(O)nc2sccn2c1=O | -11.2%
74 | COc1ccccc1NC(=O)c1ccc(NC(=O)COC(=O)C2CC2C)cc1 (stereo not shown) | 7.97%
75 | CN1CCN(CCCNC(=O)c2ccc3c(Cl)c4c(nc3c2)CCCC4)CC1 | 8.94%
76 | CCCn1nc(C(=O)OCn2nnc3ccccc3c2=O)c2ccccc2c1=O | 15.8%
77 | CCC(=O)N1CCCC(C(=O)c2ccc(-c3ccccc3)cc2)C1 (stereo not shown) | 15.9%
78 | Cc1ccc2c(c1)NC(=O)c1cccc([N+](=O)[O-])c1CO2 | 7.19%
79 | Nc1nnc(CCN2CCCCC2)s1 | 16.8%
80 | COc1ccc(N2C(=O)CC3(CCCC3)CC2=O)cc1 | 13.4%
81 | CCCCCCc1ccc(OC(=O)c2ccncc2)cc1 | 18.2%
82 | COC(=O)Cc1ccc(NC(=S)N2CCN(c3ccccn3)CC2)cc1 | 10.6%
83 | O=C(Nc1ccnn1C1CCN(C/C=C/c2ccccc2)CC1)c1cccc(F)c1 | -58.5%
84 | Cc1ccc(NS(=O)(=O)c2ccc(C(=O)N3CCCCCC3)cc2)cc1 | 3.7%
85 | COc1ccc(C(=O)NCCNC(=O)c2cnccn2)cc1 | 12.3%
86 | Cc1cc(/C=C2/C(=O)N(C)C(=S)N2C)ccc1N1CCCC1 | 1.15%
87 | CCc1ccc(N/C(SCc2ccccc2C)=C(/C#N)C(=O)NCc2ccco2)cc1 | -0.648%
88 | CCOc1ccc(NC(=O)NC2(C(=O)NCc3ccco3)CCCCC2)cc1 | 18.3%
